PubChem BioAssay AID493014 (National Center for Advancing Translational Sciences (NCATS), 2011)
Hit rate of the full screen: of about 340,000 compounds, about 170 (0.05%) were called active. About 26% were inconclusive and are not listed. The call rests on the fitted dose curve; in most records, active means well fitted inhibition curve with a large enough effect in the signal ratio, with a control signal flat (not every such curve was filed as active); inconclusive means small, poorly fitted or top-dose-only effect, or effect the other way, or a change in a side signal; inactive means flat fitted curve, though single readings scatter; the % refers to the signal ratio. This is a selection; strong and weak results do not stand in their true shares.

Assay: qHTS Assay to Find Inhibitors of Chronic Active B-Cell Receptor Signaling;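 on activity change, negative = inhibition: plate controls were basal doxycycline-induced cells for no effect and cells given 10 µM MG132 for full effect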
Settings: ABC-DLBCL IkBa-CBG/CBR reporter, luminescence ratio (green luciferase fused to IkBa over red control in TMD8 lymphoma cells), 4 h; series mostly up to 46.1 µM; activity change, negative = inhibition: at the top concentration
Outline: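 TMD8 human ABC-DLBCL cells with doxycycline-inducible IκBα–green luciferase fusion and unfused red luciferase, in 0.5% FBS medium; compounds up to 46 uM, 4 h at 37C. Green/red luminescence ratio, filter-overlap corrected, fitted to concentration-response curves.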
Potency means the concentration at half of the fitted maximal effect.

SMILES | Potency | activity change, negative = inhibition
CC(C)[N+]1(C)[C@@H]2CC[C@H]1CC(OC(=O)C(CO)c1ccccc1)C2 (stereo not given in full) | inactive | 
N#CC1(C#N)C(C(=O)C23CC4CC(CC(C4)C2)C3)C12CCOCC2 (stereo not given) |  | inactive: 2.39%
CCc1nnc(NS(=O)(=O)c2ccc(N/C=C\C(=O)c3ccc(C)cc3)cc2)s1 |  | inactive: 14.2%
O=C(N[C@@H]1C/C=C\C[C@H](CC(=O)N(CCO)Cc2ccccc2)C(=O)NC[C@@H](c2ccccc2)OC1=O)OCC1c2ccccc2-c2ccccc21 |  | inactive: -0.708%
Cc1ccc(C(=O)c2cc([N+](=O)[O-])ccc2N2CCCCC2)cc1 | active: 23.1 µM | 
OCC[C@H]1C[C@@H](O)[C@H](O)[C@]2(OCc3ccccc32)O1 |  | inactive: 8.03%
C=CC[C@@H](CC(=O)N(CCO)Cc1ccccc1)C(=O)NCCOC(=O)[C@H](CC=C)CC(=O)OC(C)(C)C |  | inactive: 0.122%
COC(=O)C1=C(C)N(Cc2ccccc2)C(=NCCc2cccnc2)N[C@H]1c1ccccc1 |  | inactive: 15.6%
CC(C)NC(=O)/C(C#N)=C/c1ccc(N(C)C)o1 |  | inactive: -21%
CCOC(=O)[C@@H]1[C@H]2COc3ccccc3[C@H]2N2C(=O)N(c3ccc(Cl)cc3)C(=O)[C@@]12C |  | inactive: -2%
C[C@H]1O[C@@H](O[C@H]2[C@@H](O)C[C@H](O[C@H]3[C@@H](O)C[C@H](O[C@H]4CC[C@@]5(C)[C@H](CC[C@@H]6[C@@H]5C[C@@H](O)[C@]5(C)[C@@H](C7=CC(=O)OC7)CC[C@]65O)C4)O[C@@H]3C)O[C@@H]2C)C[C@H](O)[C@@H]1O |  | inactive: -13.8%
C=CCOC(=O)C1=C[C@H](c2coc3ccccc3c2=O)C[C@H](OCc2ccc(CO)cc2)O1 |  | inactive: -1.96%
CC(C)(C)OC(=O)C[C@@H]1C/C=C\C[C@H](CC(=O)N[C@H](CO)Cc2ccccc2)C(=O)N[C@H](C(C)(C)C)COC1=O |  | inactive: 2.22%
CCc1ccccc1NC(=S)N=Nc1c(O)n(C)c2ccc(S(=O)(=O)N3CCOCC3)cc12 | active: 18.4 µM | 
Cc1nc2ccccc2n2c(-c3ccccc3)c3c(=O)n(C)c(=O)n(C)c3c12 |  | inactive: -1.31%
Cc1cccc(Cn2c(=O)n(-c3ccc(CC(=O)NCc4ccco4)cc3)c(=O)c3sccc32)c1 | active: 5.01 µM | 
Cc1ccc(C(=O)N/C(=C/c2ccccc2)C(=O)NCc2ccncc2)cc1 |  | inactive: 4.95%
O=C(C[C@H]1C/C=C\C[C@H](NC(=O)OCC2c3ccccc3-c3ccccc32)C(=O)OC[C@@H]2CCCN2C1=O)N[C@H](CO)Cc1ccccc1 |  | inactive: 0.155%
COC(C[C@@H]1O[C@@H]1[C@H](O)[C@@H](C)OCc1ccccc1)OC |  | inactive: 0.402%
CC(C)(C)OC(=O)C[C@H]1C/C=C\C[C@@H](CC(=O)N[C@@H](CO)Cc2ccccc2)C(=O)N2CCC[C@H]2COC1=O |  | inactive: 1.04%
